Publication PMC4336329 (PLoS ONE, 2015)
In all, about 310,000 compounds went through this assay and about 14,000 (4.5%) showed an effect of 50% or more. The effect is printed as a negative number. This is one part of the list.

biological target: human ether-à-go-go-related gene (hERG) potassium channel (human, UniProt Q12809); assay: primary screen, population patch clamp on CHO cells stably expressing hERG
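Also: peak tail current of the secondary pulse compared with the same well before compound.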

human ether-à-go-go-related gene (hERG) potassium channel, sequence (Q12809 whole entry, looked up): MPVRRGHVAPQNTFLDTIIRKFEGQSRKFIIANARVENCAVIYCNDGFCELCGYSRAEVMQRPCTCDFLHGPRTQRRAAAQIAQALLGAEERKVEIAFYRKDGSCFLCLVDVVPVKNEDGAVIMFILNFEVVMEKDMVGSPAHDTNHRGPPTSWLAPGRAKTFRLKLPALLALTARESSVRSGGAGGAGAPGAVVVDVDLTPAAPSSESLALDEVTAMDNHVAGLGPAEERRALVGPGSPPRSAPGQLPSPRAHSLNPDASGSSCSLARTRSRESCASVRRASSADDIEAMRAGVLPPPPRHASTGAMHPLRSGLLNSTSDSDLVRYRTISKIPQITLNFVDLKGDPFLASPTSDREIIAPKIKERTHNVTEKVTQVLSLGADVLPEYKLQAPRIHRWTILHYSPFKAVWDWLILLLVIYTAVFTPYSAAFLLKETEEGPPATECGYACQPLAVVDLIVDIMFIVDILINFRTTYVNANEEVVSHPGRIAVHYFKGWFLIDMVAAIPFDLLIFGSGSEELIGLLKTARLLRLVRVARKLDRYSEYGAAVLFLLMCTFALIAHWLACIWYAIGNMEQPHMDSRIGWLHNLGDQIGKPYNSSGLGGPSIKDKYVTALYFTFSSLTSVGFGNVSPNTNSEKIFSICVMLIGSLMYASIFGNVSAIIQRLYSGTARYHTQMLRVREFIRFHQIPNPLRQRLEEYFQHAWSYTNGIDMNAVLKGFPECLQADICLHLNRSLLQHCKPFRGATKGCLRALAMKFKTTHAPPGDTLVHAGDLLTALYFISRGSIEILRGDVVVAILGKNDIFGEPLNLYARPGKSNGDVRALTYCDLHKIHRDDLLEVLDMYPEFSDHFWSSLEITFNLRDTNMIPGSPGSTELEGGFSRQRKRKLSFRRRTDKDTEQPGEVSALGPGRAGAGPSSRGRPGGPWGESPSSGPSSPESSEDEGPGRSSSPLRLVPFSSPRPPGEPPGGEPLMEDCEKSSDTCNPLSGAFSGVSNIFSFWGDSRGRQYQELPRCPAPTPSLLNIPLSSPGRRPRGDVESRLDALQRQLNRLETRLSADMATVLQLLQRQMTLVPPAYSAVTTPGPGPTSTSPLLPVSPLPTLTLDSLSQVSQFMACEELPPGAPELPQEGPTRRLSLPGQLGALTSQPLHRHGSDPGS

| Compound | hERG current change (%, negative = inhibition) at 10uM [%] |
| --- | --- |
| Cn1cc(S(=O)(=O)Nc2ccc(OC(F)(F)F)cc2)c(=O)n(C)c1=O | 15.2 |
| COc1cc(CC(=O)NC(c2ccccc2)c2ccccc2)cc(OC)c1OC | 11.1 |
| O=C(CNS(=O)(=O)c1ccc2c(c1)OCCCO2)N1CCN(Cc2ccccc2)CC1 | 2.63 |
| CC(C)CC(CO)N1CCN(C(=O)c2ccc(Cl)cc2)CCC1=O (centres unmarked) | -12.5 |
| C/C(=C\c1ccccc1)C(=O)Nc1ccc(S(=O)(=O)Nc2ncccn2)cc1 | 22.8 |
| O=C(O)C1CC=CCC1C(=O)NCCc1ccccc1 (centres unmarked) | 13 |
| N=c1oc2ccc3ccccc3c2cc1-c1nnc2n1CCCCC2 | -6.3 |
| COC(=O)C1C(=O)/C(=C/N(C)C)C(=O)CC1(C)C (centres unmarked) | 13.8 |
| CN1CCN(C(c2ccc(Br)cc2)c2cc(Cl)c3cccnc3c2O)CC1 (centres unmarked) | -4.18 |
| CCOC(=O)C1=CN(Cc2ccc(OC)cc2)C=C(C(=O)OCC)C1c1cccs1 | 2.56 |
| CC1(C)CC(=O)C(C(c2cccnc2)C2C(=O)CC(C)(C)CC2=O)C(=O)C1 | 0.265 |
| Cc1c(NC(=O)c2cccs2)cccc1NC(=O)c1cccs1 | 9.71 |
| Cc1ccc(C(=O)Nc2ccc(C)c(S(=O)(=O)N(C)C)c2)s1 | 5.28 |
| CCN(CC)S(=O)(=O)c1ccc(N2CCN(C)CC2)c(NC(=O)CSCC(=O)Nc2cccc(C)c2)c1 | -13 |
| CCN1CCN(c2ccc(S(=O)(=O)N3CCOCC3)cc2NC(=O)/C=C/c2ccc(OC)c(OC)c2)CC1 | 10.4 |
| COc1cc(OC)cc(C(=O)NCC(=O)NCCN2C(=O)S/C(=C\c3ccccc3Cl)C2=O)c1 | -12.1 |
| CC1CN(Cc2ccccc2)c2nc3c(c(=O)n(C)c(=O)n3C)n2C1 (centres unmarked) | -36.1 |
| CN(C)c1ccc(/C=N/NC(=O)CN(c2ccccc2Cl)S(C)(=O)=O)cc1Br | -7.83 |
| O=C(Nc1cccnc1)c1cc(-c2ccccc2O)on1 | 11 |
| CCc1ccc(OCC(=O)NNC(=O)c2cc(S(=O)(=O)N3CCOCC3)ccc2N2CCCC2)cc1 | -48.2 |
| CCOc1ccc(-n2c([S-])c(C(=O)Nc3ccc(S(=O)(=O)N4CCOCC4)cc3)[n+]3cc(C(N)=O)ccc23)cc1 | 0.433 |
| CCOc1ccc(S(=O)(=O)NCc2ccccc2)cc1C(N)=O | 18.9 |
| Cc1cccc(C)c1NC(=O)CS(=O)CC(=O)Nc1ccc(F)cc1F (centres unmarked) | 15.6 |
| O=C(c1cc(N2C(=O)C3C4CCC(C4)C3C2=O)ccc1Cl)N1CCN(c2ccccc2)CC1 (centres unmarked) | -8.33 |
| Cc1cccc(NC(=S)N2CCC(C(=O)c3ccc(F)cc3)CC2)c1C | -3.2 |
| CCOC(=O)C1C(=O)N(C(=O)c2cncc(Br)c2)CC1c1ccccc1 (centres unmarked) | -2.41 |
| COc1ccc(-c2nc(C#N)c(NCC3CCCO3)o2)cc1OC (centres unmarked) | 6.28 |

| Compound | hERG current change (%, negative = inhibition) at 10uM [%] |
| --- | --- |
| CSCCC(NC(=O)c1ccccc1)C(=O)NCC(C)(C)N1CCOCC1 (centres unmarked) | -2.85 |
| O=C(c1ccco1)N1CCN(C(=O)c2ccc(CS(=O)c3cccc(Cl)c3)o2)CC1 (centres unmarked) | -14 |
| COCCn1c(=S)[nH]c2cc(C(=O)N3CCc4ccccc4C3)ccc2c1=O | 6.97 |
| CCCc1nc2oc3c(NCCN(C)C)ncnc3c2c2c1CCCC2 | -32.8 |
| CN(NC(=O)c1ccc(Cl)cc1)c1nc(-c2ccccc2)nnc1C(F)(F)F | 6.67 |
| Cc1c(C(=O)N2CCCCC2)oc2ccc(S(=O)(=O)N3CC(C)CC(C)C3)cc12 (centres unmarked) | 0.372 |
| CCOc1ccccc1N(C)S(=O)(=O)c1ccc2[nH]cc(C(=O)N(CCOC)CCOC)c(=O)c2c1 | 9.78 |
| O=C(COC(=O)c1cccc(O)c1)Nc1ccc(S(=O)(=O)N2CCOCC2)cc1 | 6.31 |
| CCOc1ccc(-n2c(SCC(=O)Nc3ccc(CC)cc3)nc3n[nH]c(C)c3c2=N)cc1 | 18.6 |
| CCc1nc(SCc2ccc(OCC(C)C)cc2)n[nH]1 | 1.32 |
| O=C(Cc1ccccc1)NNC(=O)C1CCN(c2ncccn2)CC1 | 8.45 |
| Cl.O=C(OCCN1CCCCC1)c1cccc(F)c1 | -4.33 |
| Cn1c(=O)c(C(=O)CN2CCCc3ccccc32)c(N)n(Cc2ccccc2)c1=O | 6.32 |
| O=C(NCCCl)Nc1ccc(Cl)c([N+](=O)[O-])c1 | 4.15 |
| C#Cc1ccc([C@@H]2C=C(C(=O)O)O[C@H](OCC)[C@H]2CCCO)cc1 | 18.4 |
| CNc1ccccc1NC(=O)C1CCCN1C(=O)OCc1ccccc1 (centres unmarked) | 4.72 |
| CN(C(=O)Nc1ccc(Cl)cc1)c1c2c(nn1C)CCCC2 | -8.17 |
| CCCCC(=O)Nc1ccc(C(=O)Nc2ccc(S(=O)(=O)Nc3nccc(C)n3)cc2)cc1 | 9.11 |
| Nc1ccccc1C(O)(Cc1ccccc1)c1ccccc1 (centres unmarked) | 12.2 |
| CCOc1ccc(S(=O)(=O)c2c[nH]c3ccccc3c2=O)cc1 | 13.7 |
| COC(=O)c1cc(NC(=O)C2(S(=O)(=O)c3ccc(Cl)cc3)CC2)cc(C(=O)OC)c1 | -36.8 |
| Cc1ccccc1CSc1nnc(NC(=O)C2COc3ccccc3O2)s1 (centres unmarked) | -6.38 |
| O=C(NCc1ccccc1)c1ccc(COCC(F)(F)F)o1 | -5.64 |
| C=CCNC(=O)CSc1cc([N+](=O)[O-])cc(S(=O)(=O)Cc2ccccc2)c1 | -23.9 |
| COc1ccccc1N1CCN(C(=O)c2cc(-c3ccc(Cl)cc3)on2)CC1 | 8.31 |
| COc1cccc(/C=N/NC(=O)CNC(=O)c2ccco2)c1O | 12.2 |
